This note sets out measurements from the BET-seq Pho4 binding data (Le et al. 2018).

Some of the results follow. These are noisy estimates, calculated here from bound and input reads.

The experiment addresses T1, Pho4 (S. cerevisiae) (UniProt P07270).
T1 sequence: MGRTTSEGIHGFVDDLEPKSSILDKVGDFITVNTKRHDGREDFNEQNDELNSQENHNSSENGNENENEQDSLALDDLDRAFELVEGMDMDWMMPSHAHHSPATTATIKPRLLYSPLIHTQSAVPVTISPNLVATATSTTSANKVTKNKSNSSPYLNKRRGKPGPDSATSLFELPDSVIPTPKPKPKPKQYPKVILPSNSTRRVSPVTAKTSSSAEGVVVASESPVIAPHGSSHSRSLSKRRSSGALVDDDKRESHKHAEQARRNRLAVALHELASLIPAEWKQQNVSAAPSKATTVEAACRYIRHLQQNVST
Description: relative binding free energy (BET-seq); higher = weaker binding. To be noted: reference: library average.
For the sequence TCTTACACGTGGGGGG, the “relative binding free energy” value came out at 0.1 kcal/mol.

For GGGGTCACGTGGAGAA, the “relative binding free energy” value was 0.16 kcal/mol.

For GTGCGCACGTGGTAGA, the “relative binding free energy” value was -0.05 kcal/mol.

Consider GTTGTCACGTGCTCTG, for which the “relative binding free energy” value is 0.03 kcal/mol.

Take AAGAACACGTGGGGTT: the “relative binding free energy” value is -0.17 kcal/mol.

Regarding TTAATCACGTGTGACA, the “relative binding free energy” value stood at 0.25 kcal/mol.

With AGGTGCACGTGAGCAT, the “relative binding free energy” value was 0.08 kcal/mol.

Regarding AGATTCACGTGGGTGC, the “relative binding free energy” value was 0.24 kcal/mol.

In the case of GGCGGCACGTGTATTA, the “relative binding free energy” value was 0.06 kcal/mol.

Take TGGGTCACGTGTCTCA: the “relative binding free energy” value turned out to be 0.16 kcal/mol.

As to GGTAGCACGTGTTGCT, the “relative binding free energy” value was -0.03 kcal/mol.

For the sequence ACTTTCACGTGGGTAG, the “relative binding free energy” value was 0.1 kcal/mol.

On to GTGGACACGTGTGCGT, for which the “relative binding free energy” value was found to be 0 kcal/mol.

On to AGTTACACGTGATCGG, for which the “relative binding free energy” value worked out at 0.13 kcal/mol.

Consider GAAGGCACGTGGTCTG, for which the “relative binding free energy” value was -0.24 kcal/mol.

For GTCGCCACGTGTGTGT, the “relative binding free energy” value is -0.1 kcal/mol.

For the sequence TAATTCACGTGTGTAA, the “relative binding free energy” value was 0.09 kcal/mol.

Turning to TTATTCACGTGGTTCT, the “relative binding free energy” value amounted to 0.11 kcal/mol.

For the sequence TTGCTCACGTGTTTAG, the “relative binding free energy” value is 0.25 kcal/mol.

As to ATTAGCACGTGTAAGA, the “relative binding free energy” value amounted to 0.19 kcal/mol.

Consider TGAAACACGTGGTGAG, for which the “relative binding free energy” value was -0.11 kcal/mol.

With GTTAGCACGTGACGTT, the “relative binding free energy” value is 0.23 kcal/mol.

As to AGAGACACGTGGTAGG, the “relative binding free energy” value was -0.01 kcal/mol.

For AGCGGCACGTGGCGTT, the “relative binding free energy” value was -0.29 kcal/mol.

Turning to TTTGTCACGTGAGTGA, the “relative binding free energy” value is 0.32 kcal/mol.

Regarding TATGTCACGTGGGCGA, the “relative binding free energy” value is -0.11 kcal/mol.

Regarding TATTTCACGTGCCAGT, the “relative binding free energy” value was 0.38 kcal/mol.

For the sequence TTACGCACGTGAGTGA, the “relative binding free energy” value was found to be 0.08 kcal/mol.

AGGTCCACGTGGTTAT: the “relative binding free energy” value was found to be 0.11 kcal/mol.

Take CTTGGCACGTGGATTG: the “relative binding free energy” value was -0.1 kcal/mol.

In the case of TTGGCCACGTGGGCTT, the “relative binding free energy” value was -0.19 kcal/mol.

Consider GGGGGCACGTGCTTCG, for which the “relative binding free energy” value was -0.17 kcal/mol.

For AAGTACACGTGGTTTT, the “relative binding free energy” value was 0.1 kcal/mol.

With CGCCGCACGTGTTGGG, the “relative binding free energy” value was -0.07 kcal/mol.

On to GTGGACACGTGTGGCG, for which the “relative binding free energy” value was found to be 0.16 kcal/mol.

In the case of GTTGTCACGTGTATTT, the “relative binding free energy” value worked out at 0.29 kcal/mol.

TGATACACGTGATCGG: the “relative binding free energy” value came to 0.19 kcal/mol.

Turning to TCGGGCACGTGTGTTG, the “relative binding free energy” value was -0.03 kcal/mol.

In the case of GCAGTCACGTGGTTTG, the “relative binding free energy” value is 0.17 kcal/mol.

In the case of TTGGACACGTGAGGGA, the “relative binding free energy” value came to 0.23 kcal/mol.

Take GGAAGCACGTGGTGAA: the “relative binding free energy” value was -0.16 kcal/mol.

As to TTCTGCACGTGTAGCT, the “relative binding free energy” value came out at 0.03 kcal/mol.

For the sequence CTGGGCACGTGGGCAC, the “relative binding free energy” value is -0.03 kcal/mol.

For the sequence TGTATCACGTGAGTCT, the “relative binding free energy” value came out at 0.32 kcal/mol.

Consider AGGGGCACGTGTTTTT, for which the “relative binding free energy” value was -0.1 kcal/mol.

In the case of GTATACACGTGTCGGT, the “relative binding free energy” value stood at 0.09 kcal/mol.

For CGTAGCACGTGGGTCG, the “relative binding free energy” value was -0.22 kcal/mol.

With TTGGTCACGTGAACTT, the “relative binding free energy” value was determined as 0.4 kcal/mol.

Regarding TAGTGCACGTGAATAT, the “relative binding free energy” value is 0.14 kcal/mol.

Regarding TGCAGCACGTGACGGG, the “relative binding free energy” value was 0.01 kcal/mol.

Regarding TTTTACACGTGAGTGG, the “relative binding free energy” value was determined as 0.22 kcal/mol.

Take AGTTACACGTGATGGA: the “relative binding free energy” value amounted to 0.31 kcal/mol.

In the case of GGGTTCACGTGCTATG, the “relative binding free energy” value was 0.32 kcal/mol.

For AGTTTCACGTGTGGAT, the “relative binding free energy” value was 0.21 kcal/mol.

On to ATTGTCACGTGGTAGA, for which the “relative binding free energy” value came out at 0.09 kcal/mol.

As to ATTTACACGTGAAGTA, the “relative binding free energy” value is 0.35 kcal/mol.

As for ATGCTCACGTGTGGAG, the “relative binding free energy” value was found to be 0.26 kcal/mol.

As to GATTCCACGTGAGTGT, the “relative binding free energy” value worked out at 0.31 kcal/mol.

In the case of AAATTCACGTGTTTAT, the “relative binding free energy” value came out at 0.27 kcal/mol.

For the sequence TTTGTCACGTGTGAGA, the “relative binding free energy” value stood at 0.21 kcal/mol.

In the case of GCGTTCACGTGATGAG, the “relative binding free energy” value stood at 0.36 kcal/mol.

For the sequence CTTGGCACGTGTGTAC, the “relative binding free energy” value was -0.1 kcal/mol.

Consider TGGGGCACGTGTTCCT, for which the “relative binding free energy” value was -0.17 kcal/mol.

As to AGAGTCACGTGGACGT, the “relative binding free energy” value amounted to 0.05 kcal/mol.

With GCATTCACGTGGGGGG, the “relative binding free energy” value stood at 0.16 kcal/mol.

For TCTGTCACGTGTTTGA, the “relative binding free energy” value is -0.02 kcal/mol.

In the case of ATGTACACGTGTGTAA, the “relative binding free energy” value is -0.01 kcal/mol.

With GGGTACACGTGAATAG, the “relative binding free energy” value stood at 0.34 kcal/mol.

Turning to TTGTGCACGTGTACGG, the “relative binding free energy” value came to 0.06 kcal/mol.

In the case of GGGTACACGTGTAGAG, the “relative binding free energy” value amounted to 0.16 kcal/mol.

With GGGCTCACGTGATATT, the “relative binding free energy” value is 0.38 kcal/mol.

CGTCGCACGTGAGTAG: the “relative binding free energy” value is 0.45 kcal/mol.

Consider TTAATCACGTGTTTAG, for which the “relative binding free energy” value is 0.05 kcal/mol.
